Molecules are shown by their SMILES. Hit rate of the full screen: of about 110,000 compounds, about 230 (0.21%) showed an effect of 50% or more. This is one part of the list.

The results in this text go back to publication PMC6919601, “Identification of Plasmodium dipeptidyl aminopeptidase allosteric inhibitors by high throughput screening” (PLoS ONE, 2019).
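Note: 30 min substrate incubation versus DMSO and 10 µM JCP410 controls.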

Sequence of DPAP1 (Q8IIJ9 whole entry, looked up): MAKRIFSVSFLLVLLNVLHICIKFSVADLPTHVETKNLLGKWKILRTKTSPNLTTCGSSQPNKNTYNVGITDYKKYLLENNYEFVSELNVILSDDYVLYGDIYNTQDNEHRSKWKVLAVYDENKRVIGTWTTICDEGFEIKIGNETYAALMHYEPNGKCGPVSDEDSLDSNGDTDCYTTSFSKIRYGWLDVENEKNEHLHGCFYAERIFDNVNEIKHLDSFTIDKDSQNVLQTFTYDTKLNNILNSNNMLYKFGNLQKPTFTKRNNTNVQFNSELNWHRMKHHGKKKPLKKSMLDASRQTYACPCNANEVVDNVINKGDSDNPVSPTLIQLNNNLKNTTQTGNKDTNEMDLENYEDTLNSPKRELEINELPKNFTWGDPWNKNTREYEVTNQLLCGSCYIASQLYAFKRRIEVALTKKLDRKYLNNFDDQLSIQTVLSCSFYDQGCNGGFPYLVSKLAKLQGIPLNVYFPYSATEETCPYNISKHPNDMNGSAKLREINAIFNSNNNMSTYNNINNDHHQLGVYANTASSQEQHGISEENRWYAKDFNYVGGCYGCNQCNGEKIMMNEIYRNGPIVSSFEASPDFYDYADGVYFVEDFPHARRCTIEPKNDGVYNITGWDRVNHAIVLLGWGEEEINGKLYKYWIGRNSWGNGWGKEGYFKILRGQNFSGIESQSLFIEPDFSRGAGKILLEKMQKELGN

The assay concerns the target DPAP1 (Plasmodium falciparum, UniProt Q8IIJ9). Put plainly: primary screen, percent inhibition; read by cleavage of a fluorogenic dipeptide substrate; higher = more effect of the substance. Set-up: species or system P. falciparum D10 trophozoite lysates; single well.
In the case of `O=c1[nH]c2ncccc2c(=O)n1CCc1ccccc1`, the “% Inhibition @ 10 uM” value is -3.44%.
The same measure for `CC(=O)Nc1ccc(S(=O)(=O)N2CCN(C)CC2)cc1`: 6.33%; for `CCCCn1c(N=Nc2c(O)[nH]c3ccccc23)nc2c1c(=O)[nH]c(=O)n2C`: -0.053%.
Turning to `COc1ccccc1N1CCN(Cc2cccnc2)CC1`, the “% Inhibition @ 10 uM” value was -4.61%.
As for `COc1cc2sc(C(=O)Nc3ccccc3)c(Cl)c2cc1OC`, the “% Inhibition @ 10 uM” value was determined as 3.46%.
For `COc1ccc(-c2cc(C(F)(F)F)n3nc(C(=O)NCCCn4ccnc4)cc3n2)cc1`, the “% Inhibition @ 10 uM” value was 6.12%.
The same measure for `COC(=O)C1=C(N)Oc2cc(C)n(Cc3ccco3)c(=O)c2C1c1ccc(Cl)cc1` (centres unmarked): -1.11%; for `O=C(NCCc1cccs1)c1ccc(CS(=O)Cc2ccc(Cl)cc2)o1` (centres unmarked): -0.154%; for `N#CCC(=O)N1CCN(Cc2ccc3c(c2)OCO3)CC1`: 2.03%.
For the molecule `CC1(C)CC2=Nc3ccccc3NC(c3c[nH]c4ccccc34)C2=C(O)C1` (centres unmarked), the “% Inhibition @ 10 uM” value is reported as -8.72%.
On to `Nc1nc(SCc2nc(-c3ccccc3)no2)nc(O)c1-c1ccccc1`, for which the “% Inhibition @ 10 uM” value is reported as -5.41%.
For `CC1(C)CC2=Nc3ccccc3NC(c3ccccn3)C2=C(O)C1` (centres unmarked), the “% Inhibition @ 10 uM” value is on record as 2.15%.
Turning to `O=C1c2cccc3cccc(c23)C(=O)N1CCN1CCN(S(=O)(=O)c2ccc(Cl)cc2)CC1`, the “% Inhibition @ 10 uM” value amounted to 5.97%.
`C/C=C/[C@H]1OC(=O)N(Cc2ccccc2)[C@H]1c1ccccc1`: the “% Inhibition @ 10 uM” value is reported as -0.68%.
Then `CCc1ccc(S(=O)(=O)N2CCN(c3ccccc3)CC2)cc1`, with 6.21%.
On to `CC(=O)C1=C(C)OC(N)=C(C#N)C1c1ccco1` (centres unmarked), for which the “% Inhibition @ 10 uM” value turned out to be 0.343%.
On to `Cc1cccc(NC(c2ccccc2F)c2ccc3ccc(C)nc3c2O)n1` (centres unmarked), for which the “% Inhibition @ 10 uM” value was determined as 0.884%.
Take `CCOC(=O)c1cc2c(=O)n3ccccc3nc2n(CC2CCCO2)/c1=N/C(C)=O` (centres unmarked): the “% Inhibition @ 10 uM” value is -3.78%.
Then `COc1cc2c(cc1OC)CN(C(=O)CSc1nc(C)c(C)c(C)c1C#N)CC2`, with 6.97%; and `Cc1ccc(-c2cc(C(F)F)n3ncc(C(=O)NCc4ccccc4F)c3n2)cc1`, with -10.9%; and `COc1ccc(N2C(=O)CC(SC(C)C)C2=O)cc1` (centres unmarked), with -0.553%.
As for `CCOc1ccc(S(=O)(=O)Nc2cc3sc(=O)oc3c3ccccc23)cc1`, the “% Inhibition @ 10 uM” value was determined as 5.87%.
Then `Cc1nc2n(n1)C(c1ccccc1)C=C(c1ccccc1)N2` (centres unmarked), with -4.15%; and `CCOc1ccccc1NC(=O)CN(Cc1ccccc1)S(C)(=O)=O`, with -1.35%.
Regarding `CC(C)(C)NC(=O)c1cc(-c2ccccc2)[nH]n1`, the “% Inhibition @ 10 uM” value is reported as -2%.
On to `CC(C)C[C@H](NC(=O)c1csc(-c2cccc([N+](=O)[O-])c2)n1)C(=O)NCC#N`, for which the “% Inhibition @ 10 uM” value is recorded as 7.72%.
As for `CC1CC(C)CN(C2CCN(C)CC2)C1` (centres unmarked), the “% Inhibition @ 10 uM” value is recorded as -5.44%.
Then `C=CCN1C(=O)C2(NC(CCSC)C3C(=O)N(Cc4ccccc4)C(=O)C32)c2ccccc21` (centres unmarked), with -7.28%; and `CC(C)C[C@H](NC(=O)OCc1ccccc1)C(=O)NC(C#N)c1ccc(Br)s1` (some centres unmarked), with 4.63%.
On to `COC(=O)C1=CNC=C(C(=O)OC)C1c1ccccc1OC(C)C`, for which the “% Inhibition @ 10 uM” value is -2.87%.
In the case of `O=C(CN(Cc1ccc(F)cc1)S(=O)(=O)c1ccccc1)Nc1ccc(Br)cc1F`, the “% Inhibition @ 10 uM” value came to 2.27%.
As for `COc1cccc(OC)c1C(=O)Nc1cccc(F)c1`, the “% Inhibition @ 10 uM” value was -3.39%.
Then `NC(=O)CC1NC(=O)c2ccccc21` (centres unmarked), with 4.63%; and `CCCC(=O)Nc1nn2c(-c3ccccc3)nnc2s1`, with -2.17%; and `Cc1cc(C(F)(F)F)nn1CC(=O)N(C)C1CCCCC1`, with -2.24%.
For `Cc1nc(N2CCCCC2)c2c3c(sc2n1)CC(C)CC3` (centres unmarked), the “% Inhibition @ 10 uM” value is reported as -0.511%.
Then `O=C(N/C(=C\c1ccccc1)C(=O)N1CCOCC1)c1cccc(Br)c1`, with 0.674%.
Regarding `Cc1cccc(C(=O)OCC(=O)c2ccc(Cl)cc2)c1`, the “% Inhibition @ 10 uM” value was -5.36%.
Consider `Cc1c(CNCc2ccccc2)c(C(=O)O)c(C)n1Cc1ccccc1`, for which the “% Inhibition @ 10 uM” value is 1.41%.
The same measure for `O=C(O)c1cc(Cl)c(Cl)cc1C(=O)Nc1ccccc1`: -1.51%; for `COc1cccc(C(=O)N2CCN(Cc3ccccn3)CC2)c1`: 5.55%; for `Cc1cc2ccccc2c(=O)n1CC(=O)NCC(=O)N(C)Cc1ccccc1`: -4.67%.
The same measure for `CC1CCN(Cc2c(O)ccc3c(=O)c(-c4ccc5c(c4)OCCO5)coc23)CC1`: -1.82%; for `CCc1sc(C2C(C#N)=C(N)OC3=C2C(=O)CCC3)cc1Br` (centres unmarked): -4.03%.
Consider `Cc1ccc(Oc2ccc3c(c2)C(=O)N(CC(=O)O)C3=O)cc1`, for which the “% Inhibition @ 10 uM” value was -4.75%.
As to `Cc1ccc(CN2CCN(c3ccc(Cl)cc3)CC2)cc1`, the “% Inhibition @ 10 uM” value is listed as -5.5%.
For `COC(=O)C1CC2=CC(=O)CCC2(C)C2=CCC3(C)C(CC[C@@]34CCC(=O)O4)C21` (some centres unmarked), the “% Inhibition @ 10 uM” value is given as 5.37%.
As to `CCCC(=O)Nc1ccccc1C(=O)N(C1CCCCC1)C1CCCCC1`, the “% Inhibition @ 10 uM” value is -1.56%.
In the case of `CCOC(=O)c1nnc(Cc2ccc(Cl)cc2)o1`, the “% Inhibition @ 10 uM” value is -0.414%.
As to `CC(Oc1ccccc1)C(=O)N1CCN(c2ccc(F)cc2)CC1` (centres unmarked), the “% Inhibition @ 10 uM” value was -2.77%.
